The whole screen tested about 280,000 compounds, of which about 100 (0.036%) were called active. Inconclusive results, whose numbers are uncertain, are shown with a selection of clear calls. The call rests on the fitted dose curve; in most records, active means well fitted inhibition curve with a large enough effect in the signal ratio, with a control signal flat (not every such curve was filed as active); inconclusive means small, poorly fitted or top-dose-only effect, or effect the other way, or a change in a side signal; inactive means no such curve, though single readings can be large or run the other way; the % refers to the signal ratio. Where the call is inconclusive, the potency comes from a doubtful curve fit. A note “side channel” means that the fit belongs to a control or component signal, not to the main read-out.
The molecules below were run against Muscleblind-like protein 1 (Homo sapiens) (UniProt Q9NR56) (assay: qHTS Assay for Inhibitors of MBNL1-poly(CUG) RNA binding). Conditions: TR-FRET MBNL1-His/biotin-(CUG)12 binding, 665/545 ratio; series mostly up to 57.5 µM.
Sequence of UniProt Q9NR56 (Q9NR56 whole entry, looked up): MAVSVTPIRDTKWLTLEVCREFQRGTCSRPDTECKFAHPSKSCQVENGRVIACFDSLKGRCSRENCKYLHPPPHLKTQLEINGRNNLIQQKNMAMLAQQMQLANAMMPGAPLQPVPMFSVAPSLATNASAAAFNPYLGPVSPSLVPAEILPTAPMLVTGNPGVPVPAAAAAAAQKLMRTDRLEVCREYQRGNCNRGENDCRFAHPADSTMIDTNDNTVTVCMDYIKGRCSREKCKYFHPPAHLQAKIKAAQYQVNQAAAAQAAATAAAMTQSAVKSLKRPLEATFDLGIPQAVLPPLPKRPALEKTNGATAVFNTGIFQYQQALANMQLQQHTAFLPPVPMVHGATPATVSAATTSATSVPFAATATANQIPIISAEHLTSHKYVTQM
Summary of the method: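 TR-FRET readout: Ex 340 nm, 665/545 nm emission ratio, normalized to buffer-only (basal) and MBNL1-(CUG)12 controls. Complex of MBNL1-His with Biotin-(CUG)12, compounds 92 nM–58 uM, incubated 60 min at room temperature.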
Potency means the concentration at half of the fitted maximal effect; tags describe the fitted curve by direction and shape or compound fluorescence and quenching.

SMILES	Potency
CC(CC(=O)Nc1ncc([N+](=O)[O-])s1)c1ccccc1 (centres undefined)	inconclusive: 15.8 µM [quencher, partial curve]
COc1cccc(/C=C2\SC(N3CCCC(C)C3)=NC2=O)c1OC (centres undefined)	inconclusive: 15.8 µM [quencher, side channel, partial curve]
CCCCN(C)c1c(N2CCC(C(=O)OCC)CC2)c(=O)c1=O	inconclusive: 22.4 µM [quencher, side channel, single point]
COC(=O)C/C(O)=C(/N=Nc1cccc(C(F)(F)F)c1)C(=O)OC	inconclusive: 28.2 µM [quencher, side channel, single point]
COCCN1C=C2C(=O)C(C)(OC(=O)CCc3ccccc3)C(=O)C=C2C=C1c1ccc(C#N)cc1 (centres undefined)	inconclusive: 31.6 µM [quencher, side channel, partial curve]
Cc1ccc(NC(=S)N2CCN(CCN3C(=O)c4cccc5cccc(c45)C3=O)CC2)cc1	inconclusive: 3.55 µM [quencher, side channel, full curve, poor fit]
CC1(C)CC(=O)C/C(=N/NC(=O)C2CCN(S(=O)(=O)c3cccs3)CC2)C1	inconclusive: 5.01 µM [fluorescent, side channel, partial curve]
CCOc1ccc(CCNC(=O)c2sc3nc4n(c(=O)c3c2C)CCC4)cc1	inactive
CCOC(=O)N1CCN(c2ccc(N3C(=O)CCCC3=O)cc2[N+](=O)[O-])CC1	inconclusive: 25.1 µM [quencher, side channel, partial curve]
O=S(=O)(NCc1ccco1)N1CCOCC1	inconclusive: 7.08 µM [fluorescent, side channel, single point]
Cc1cccc(NC(=O)c2ccc3nccnc3c2)c1C	inconclusive: 12.6 µM [quencher, side channel, partial curve]
COc1ccc(Cl)cc1NC(=O)Nc1cc(C)on1	inconclusive: 28.2 µM [quencher, single point]
CCOC(=O)c1cnc2ccc(OCC)cc2c1NCCCN1CCOCC1	inconclusive: 25.1 µM [quencher, side channel, single point]
COC(=O)Nc1ccccc1C(=O)N1CCN(c2ccc(C)cc2)CC1	inconclusive: 100 µM [inhibitor, partial curve]
COc1ccccc1Cn1c(=S)[nH]c2cc(C(=O)NCC(OC)OC)ccc2c1=O	inactive
COc1cc(/C=C/c2cc(OC(C)=O)c3ccccc3n2)c(OC(C)=O)c([N+](=O)[O-])c1	inconclusive: 3.16 µM [quencher, side channel, partial curve]
Cc1ccc2nc3c(cc(C#N)c(=O)n3CC3CCCO3)c(=O)n2c1 (centres undefined)	inconclusive: 20 µM [quencher, partial curve]
CCCCc1ccc(N=N/C(C(=O)Nc2ccccc2OC)=C(/C)O)cc1	inconclusive: 1 µM [fluorescent, side channel, full curve, poor fit]
CCOn1c(=O)c(-c2ccc(C)cc2)[n+]([O-])c2ccccc21	inconclusive: 7.08 µM [quencher, side channel, partial curve]
CCOC(=O)c1ccc2c(c1)[n+](CC)c(C)n2-c1ccccc1	inactive

SMILES	Potency
COc1cccc(CN(C)C(=O)c2ccc(N3CCCC3)c([N+](=O)[O-])c2)c1	inconclusive: 17.8 µM [quencher, side channel, partial curve]
Cc1cc(C)cc(NCc2cc3c(cc2[N+](=O)[O-])OCO3)c1	inconclusive: 20 µM [quencher, side channel, single point]
COc1ccc(CNC(=O)c2cc3cccc(O)c3oc2=N)cc1	inconclusive: 3.16 µM [quencher, side channel, full curve]
COc1ccc(CCNc2nc(-c3sc(C)nc3C)cs2)cc1OC	inconclusive: 22.4 µM [quencher, side channel, partial curve]
COc1ccc(C(=O)Nc2ccc3ccccc3n2)c(OC)c1OC	inactive
COc1ccc(-c2n[nH]c(=S)o2)c(OC)c1	inactive
CC(N=Cc1nc(-c2ccccc2)oc1O)c1ccccc1 (centres undefined)	inconclusive: 25.1 µM [quencher, side channel, single point]
CCN1CC2=C(OC(N)=C(C#N)C2c2cccs2)/C(=C\c2cccs2)C1 (centres undefined)	inconclusive: 25.1 µM [quencher, partial curve]
Cc1c(NC(=O)c2ccccc2)c(=O)n(-c2ccccc2)n1C	inconclusive: 79.4 µM [inhibitor, single point]
Cc1cnc([N+](=O)[O-])n1CCOC(=O)c1cccc(F)c1	inconclusive: 25.1 µM [quencher, side channel, partial curve]
CC(C(=O)NC1C=CS(=O)(=O)C1)N1C(=O)/C(=C/c2cccc(Cl)c2)SC1=S (centres undefined)	inconclusive: 15.8 µM [quencher, side channel, partial curve]
COc1ccc(-c2cn3c(C)c(C(=O)Nc4cc(NC(C)=O)ccc4OC)sc3n2)cc1	inactive
CCN(CC)CCOC(=O)c1cccc(Br)c1	inactive
CCN(Cc1ccccc1)C(=O)COC(=O)c1cc(=O)[nH]c2ccccc12	inconclusive: 14.1 µM [quencher, side channel, partial curve]
CCC(C)(C)c1ccc(Oc2ccc(N)cc2)cc1	inactive
Cc1ccccc1Nc1nc(=O)c2cc([N+](=O)[O-])ccc2s1	inconclusive: 2.51 µM [quencher, side channel, single point]
O=C(NCCc1cccc(Cl)c1)c1ccc(OC2CCN(Cc3ccccn3)CC2)cc1	inactive
O=c1cc(O)c2sc3nc(-c4cccnc4)cc(C(F)(F)F)c3c2[nH]1	inconclusive: 14.1 µM [quencher, partial curve]
Cc1ccc(-c2csc(-c3ccncc3)n2)cc1	inconclusive: 17.8 µM [quencher, side channel, partial curve]
